Measured values reported in the supplement of paper PMC6657886.
MIC of clinical N. gonorrhoeae isolates (2015-2017) by agar dilution on GC agar with 1% IsoVitaleX (ranges not stated); higher = less susceptible. No active / inactive call per row; the paper counts benzylpenicillin above 1 and ceftriaxone above 0.125 mg/L as resistant (EUCAST). The method is stated for benzylpenicillin and ceftriaxone and assumed for the other drugs. '<=' is inferred from pile-ups at the end values. Isolates are numbered anew.

Experiments:
Assay in all cases: Agar dilution on enriched GC agar; resistance determinants by microarray.
ceftriaxone = compound: CO/N=C(\C(=O)N[C@@H]1C(=O)N2C(C(=O)O)=C(CSc3nc(=O)c(O)nn3C)CS[C@H]12)c1csc(N)n1 [ceftriaxone]
benzylpenicillin = compound: CC1(C)S[C@@H]2[C@H](NC(=O)Cc3ccccc3)C(=O)N2[C@H]1C(=O)O [benzylpenicillin]
azithromycin = compound: CC[C@H]1OC(=O)[C@H](C)[C@@H](O[C@H]2C[C@@](C)(OC)[C@@H](O)[C@H](C)O2)[C@H](C)[C@@H](O[C@@H]2O[C@H](C)C[C@H](N(C)C)[C@H]2O)[C@](C)(O)C[C@@H](C)CN(C)[C@H](C)[C@@H](O)[C@]1(C)O [azithromycin]
tetracycline = compound: CN(C)[C@@H]1C(O)=C(C(N)=O)C(=O)[C@@]2(O)C(O)=C3C(=O)c4c(O)cccc4[C@@](C)(O)[C@H]3C[C@@H]12 [tetracycline]
spectinomycin = compound: CN[C@@H]1[C@H](O)[C@H](NC)[C@H]2O[C@@]3(O)C(=O)C[C@@H](C)O[C@H]3O[C@@H]2[C@H]1O [spectinomycin]

Test System	MIC (ceftriaxone)	MIC (benzylpenicillin)	MIC (azithromycin)	MIC (tetracycline)	MIC (spectinomycin)
Neisseria gonorrhoeae isolate 67 (blaTEM plasmid: no, gyrA: wild type, mtrR promoter: wild type, parC: wild type, penA: ins345Asp, ponA: wild type, porB: wild type, rpsJ: wild type, tetM plasmid: no)	0.015 µg/mL	0.06 µg/mL	0.008 µg/mL	0.06 µg/mL	32 µg/mL
Neisseria gonorrhoeae isolate 150 (blaTEM plasmid: no, gyrA: Thr91, Gly95, mtrR promoter: -35delA, parC: wild type, penA: ins345Asp, ponA: Pro421, porB: Asn120, Asp121, rpsJ: Met57, tetM plasmid: no)	0.032 µg/mL	0.12 µg/mL	0.5 µg/mL	1 µg/mL	16 µg/mL
Neisseria gonorrhoeae isolate 457 (blaTEM plasmid: no, gyrA: Phe91, Asn95, mtrR promoter: wild type, parC: Arg87, Glu91, penA: ins345Asp, ponA: Pro421, porB: wild type, rpsJ: Met57, tetM plasmid: no)	≤ 0.002 µg/mL	0.12 µg/mL	0.12 µg/mL	0.5 µg/mL	16 µg/mL
Neisseria gonorrhoeae isolate 190 (blaTEM plasmid: no, gyrA: Phe91, Asn95, mtrR promoter: -35delA, parC: Arg87, Glu91, penA: ins345Asp, ponA: wild type, porB: Asp120, Gly121, rpsJ: Met57, tetM plasmid: yes)	0.008 µg/mL	0.5 µg/mL	0.12 µg/mL	32 µg/mL	16 µg/mL
Neisseria gonorrhoeae isolate 221 (blaTEM plasmid: yes, gyrA: Phe91, Asp95, mtrR promoter: wild type, parC: wild type, penA: ins345Asp, ponA: wild type, porB: wild type, rpsJ: Met57, tetM plasmid: yes)	≤ 0.002 µg/mL	≥ 32 µg/mL	0.12 µg/mL	16 µg/mL	32 µg/mL
Neisseria gonorrhoeae isolate 390 (blaTEM plasmid: no, gyrA: Ser91, Asn95, mtrR promoter: wild type, parC: Arg87, Glu91, penA: ins345Asp, ponA: Pro421, porB: wild type, rpsJ: Met57, tetM plasmid: no)	0.004 µg/mL	0.12 µg/mL	0.12 µg/mL	0.5 µg/mL	16 µg/mL
Neisseria gonorrhoeae isolate 289 (blaTEM plasmid: no, gyrA: Thr91, Gly95, mtrR promoter: wild type, parC: wild type, penA: ins345Asp, ponA: wild type, porB: wild type, rpsJ: wild type, tetM plasmid: no)	≤ 0.002 µg/mL	0.12 µg/mL	0.06 µg/mL	0.25 µg/mL	32 µg/mL
Neisseria gonorrhoeae isolate 314 (blaTEM plasmid: no, gyrA: wild type, mtrR promoter: wild type, parC: wild type, penA: ins345Asp, ponA: wild type, porB: wild type, rpsJ: wild type, tetM plasmid: no)	0.004 µg/mL	0.03 µg/mL	0.008 µg/mL	0.25 µg/mL	32 µg/mL
Neisseria gonorrhoeae isolate 318 (blaTEM plasmid: no, gyrA: Phe91, Asn95, mtrR promoter: -35delA, parC: Arg87, Glu91, penA: ins345Asp, ponA: Pro421, porB: Asn120, Asp121, rpsJ: Met57, tetM plasmid: no)	0.015 µg/mL	2 µg/mL	0.25 µg/mL	2 µg/mL	32 µg/mL
Neisseria gonorrhoeae isolate 101 (blaTEM plasmid: no, gyrA: wild type, mtrR promoter: wild type, parC: Arg87, Glu91, penA: ins345Asp, ponA: Pro421, porB: Asp120, Ala121, rpsJ: Met57, tetM plasmid: no)	0.004 µg/mL	0.25 µg/mL	0.12 µg/mL	1 µg/mL	16 µg/mL
Neisseria gonorrhoeae isolate 296 (blaTEM plasmid: no, gyrA: wild type, mtrR promoter: wild type, parC: wild type, penA: wild type, ponA: wild type, porB: wild type, rpsJ: wild type, tetM plasmid: yes)	≤ 0.002 µg/mL	≤ 0.015 µg/mL	0.004 µg/mL	16 µg/mL	32 µg/mL
Neisseria gonorrhoeae isolate 41 (blaTEM plasmid: no, gyrA: wild type, mtrR promoter: -35delA, parC: wild type, penA: ins345Asp, ponA: wild type, porB: Lys 120, Asp121, rpsJ: Met57, tetM plasmid: no)	0.015 µg/mL	0.5 µg/mL	0.03 µg/mL	2 µg/mL	32 µg/mL
Neisseria gonorrhoeae isolate 95 (blaTEM plasmid: no, gyrA: Phe91, Asn95, mtrR promoter: wild type, parC: Ser87, Gly 91, penA: ins345Asp, ponA: Pro421, porB: Asp120, Gly121, rpsJ: Met57, tetM plasmid: no)	0.004 µg/mL	0.25 µg/mL	0.06 µg/mL	1 µg/mL	32 µg/mL
Neisseria gonorrhoeae isolate 107 (blaTEM plasmid: no, gyrA: wild type, mtrR promoter: wild type, parC: wild type, penA: wild type, ponA: wild type, porB: wild type, rpsJ: wild type, tetM plasmid: no)	≤ 0.002 µg/mL	0.06 µg/mL	0.06 µg/mL	0.25 µg/mL	16 µg/mL
Neisseria gonorrhoeae isolate 248 (blaTEM plasmid: no, gyrA: wild type, mtrR promoter: wild type, parC: wild type, penA: ins345Asp, ponA: wild type, porB: wild type, rpsJ: wild type, tetM plasmid: no)	0.008 µg/mL	0.06 µg/mL	0.12 µg/mL	0.12 µg/mL	16 µg/mL
Neisseria gonorrhoeae isolate 83 (blaTEM plasmid: no, gyrA: Phe91, Gly95, mtrR promoter: wild type, parC: Arg 87, Glu91, penA: ins345Asp, ponA: Pro421, porB: Asp120, Ala121, rpsJ: Met57, tetM plasmid: no)	≤ 0.002 µg/mL	0.03 µg/mL	0.06 µg/mL	0.12 µg/mL	16 µg/mL
Neisseria gonorrhoeae isolate 483 (blaTEM plasmid: no, gyrA: Thr91, Gly95, mtrR promoter: wild type, parC: wild type, penA: wild type, ponA: wild type, porB: wild type, rpsJ: wild type, tetM plasmid: yes)	0.004 µg/mL	0.06 µg/mL	0.12 µg/mL	16 µg/mL	4 µg/mL
Neisseria gonorrhoeae isolate 138 (blaTEM plasmid: yes, gyrA: Thr91, Gly95, mtrR promoter: wild type, parC: wild type, penA: ins345Asp, ponA: wild type, porB: wild type, rpsJ: Met57, tetM plasmid: yes)	0.004 µg/mL	≥ 32 µg/mL	0.06 µg/mL	64 µg/mL	16 µg/mL
Neisseria gonorrhoeae isolate 271 (blaTEM plasmid: no, gyrA: wild type, mtrR promoter: wild type, parC: wild type, penA: ins345Asp, ponA: wild type, porB: wild type, rpsJ: wild type, tetM plasmid: no)	0.004 µg/mL	0.06 µg/mL	0.004 µg/mL	0.25 µg/mL	32 µg/mL
Neisseria gonorrhoeae isolate 345 (blaTEM plasmid: no, gyrA: Phe91, Gly95, mtrR promoter: wild type, parC: Arg87, Glu91, penA: ins345Asp, ponA: Pro421, porB: Asp120, Ala121, rpsJ: wild type, tetM plasmid: no)	≤ 0.002 µg/mL	0.5 µg/mL	0.015 µg/mL	2 µg/mL	32 µg/mL
Neisseria gonorrhoeae isolate 180 (blaTEM plasmid: no, gyrA: Phe91, Gly95, mtrR promoter: wild type, parC: Arg87, Glu91, penA: ins345Asp, ponA: Pro421, porB: Asp120, Ala121, rpsJ: Met57, tetM plasmid: no)	≤ 0.002 µg/mL	0.25 µg/mL	0.015 µg/mL	0.5 µg/mL	32 µg/mL
Neisseria gonorrhoeae isolate 239 (blaTEM plasmid: no, gyrA: wild type, mtrR promoter: wild type, parC: wild type, penA: ins345Asp, ponA: wild type, porB: wild type, rpsJ: wild type, tetM plasmid: no)	0.008 µg/mL	0.06 µg/mL	0.12 µg/mL	0.5 µg/mL	16 µg/mL
Neisseria gonorrhoeae isolate 247 (blaTEM plasmid: no, gyrA: Phe91, Asn 95, mtrR promoter: -35delA, parC: Arg 87, Glu91, penA: wild type, ponA: Pro421, porB: Asn120, Asp121, rpsJ: Met57, tetM plasmid: no)	0.008 µg/mL	2 µg/mL	0.5 µg/mL	4 µg/mL	32 µg/mL
Neisseria gonorrhoeae isolate 440 (blaTEM plasmid: no, gyrA: Thr91, Gly95, mtrR promoter: wild type, parC: wild type, penA: wild type, ponA: Pro421, porB: wild type, rpsJ: Met57, tetM plasmid: no)	0.004 µg/mL	0.25 µg/mL	0.12 µg/mL	0.25 µg/mL	32 µg/mL
Neisseria gonorrhoeae isolate 189 (blaTEM plasmid: no, gyrA: Thr91, Gly95, mtrR promoter: -35delA, parC: wild type, penA: ins345Asp, ponA: Pro421, porB: wild type, rpsJ: wild type, tetM plasmid: no)	≤ 0.002 µg/mL	0.12 µg/mL	0.06 µg/mL	1 µg/mL	32 µg/mL
